SMILES strings stand for the structures. Out of some 150,000 compounds screened, about 540 (0.36%) showed an effect of 50% or more. The list shows a part of the results.

From ChEMBL document CHEMBL4888484, “Replenishing the malaria drug discovery pipeline: Screening and hit evaluation of the MMV Hit Generation Library 1 (HGL1) against asexual blood stage Plasmodium falciparum ,using a nano luciferase reporter read-out” (2022) come the findings set out here.

This experiment has as its system Plasmodium falciparum. As to the kind of experiment: Primary screen in NF54 nanoGlo assay, in single point, at 2uM, 72h; a lower Z score goes with more inhibition. In kind it is functional, Erythrocyte. Particulars: timepoint 72 hour.
With `CCCc1cc(CN(C)C(=O)c2cnc(N3CCCCC3)nc2C)n[nH]1`, the % Inhibition (usually the drop in the measured response relative to a control, in per cent) is -20% and the Z score came out at 1.93.
For `COC(Cn1ccc(=O)c2cc(Oc3ccccc3)ccc21)C1CCOC1` (stereo not drawn), in that order: -12% and 1.53.
Take `CNS(=O)(=O)CC(=O)Nc1ccc(F)c(C(=O)OC)c1C`: the “% Inhibition” value is -8% and the Z score worked out at 0.98.
In the case of `Cc1cccc(-c2nc3c(c(=O)[nH]2)CN(C(=O)c2cccc4ccccc24)CC3)c1`, the “% Inhibition” value was 2% and the Z score is reported as -0.32.
Consider `Cc1nnc(CN2CCC[C@H](c3n[nH]c(-c4ccccc4)n3)C2)s1`, for which the “% Inhibition” value is listed as -10% and the Z score is reported as 1.48.
For `O=C(CN1CCC(C(=O)N2CCCC2)CC1)Nc1cc(Cl)ccc1Cl`, in that order: -7% and 0.79.
On to `Cc1nn(C)c2nc(N3CCN(C4CCCC4)CC3)sc12`, for which the “% Inhibition” value is on record as -3% and the Z score stood at 0.42.
In the same order, the values of `Nc1c(Cl)cc(S(=O)(=O)Nc2noc(C3CC3)n2)cc1Cl` are -5% and 0.88.
As for `CCc1ccc(NC(=O)Cn2ncn3nc4c(c3c2=O)CCCC4)cc1`, the “% Inhibition” value was determined as 1% and the Z score is recorded as -0.12.
For `CN1C(=O)[C@H]2CN(C(=O)Cn3ccc4ccccc4c3=O)C[C@H]2C1=O`, in that order: 5% and -0.79.
For `Cc1csc(CNC(=O)c2ccccn2)n1`, the “% Inhibition” value is recorded as -4% and the Z score was found to be 0.5.
In the same order, the values of `CN1C(=O)C(C)(C)c2cc(S(=O)(=O)NCC3CCC(C(=O)NC4CCCCC4)CC3)ccc21` (stereo not drawn) are -9% and 1.41.
With `C[C@@H](Cn1cncn1)NC(=O)Nc1scnc1C(C)(C)C`, the “% Inhibition” value was -8% and the Z score is 0.93.
In the same order, the values of `CCc1ccc(-c2cnc3ccccc3n2)cc1NC(=O)[C@@H](NS(=O)(=O)c1ccccc1)C(C)C` are 4% and -0.61.
In the same order, the values of `CS(=O)(=O)N1CCN(C(=O)Cc2ccn[nH]2)Cc2ccccc21` are 5% and -0.97.
Take `c1nc(N2CCC3(CCO3)CC2)c2cc[nH]c2n1`: the “% Inhibition” value is -2% and the Z score is on record as 0.44.
With `COc1ccccc1CNC(=O)c1c(OCC(C)C)cc(=O)n2c1CCCCC2`, the “% Inhibition” value is -4% and the Z score was determined as 0.58.
Take `O=C(NCCc1ccco1)c1ccc(CN2C(=O)CCn3nc(-c4ccccc4)cc32)cc1`: the “% Inhibition” value stood at 10% and the Z score is -1.13.
For `N#CCC1(COc2ccc(F)cc2C(=O)c2ccccc2)CC1`, in that order: 5% and -1.
Take `COc1cccc(-c2nc(Cn3nc(C)c4c(C)onc4c3=O)c(C)o2)c1OC`: the “% Inhibition” value is on record as -7% and the Z score is on record as 0.73.
In the case of `Cc1cnc(NC(=O)Cn2ncc(=O)c3ccccc32)s1`, the “% Inhibition” value is given as 7% and the Z score is given as -1.41.
For the molecule `Cc1cc(NC(=O)CCc2cccs2)on1`, the “% Inhibition” value is recorded as 8% and the Z score is -1.56.
In the same order, the values of `Cc1cc(NC(=O)Cn2ccc(-c3ccc(C)s3)n2)n(C)n1` are -9% and 1.28.
Consider `CS(=O)(=O)N(CC(F)(F)F)C1CCN(Cc2coc3ccccc23)CC1`, for which the “% Inhibition” value is -5% and the Z score was 0.7.
On to `C[C@@H](C(=O)OC(C)(C)C)N(C(=O)c1cocn1)c1ccc(F)cc1`, for which the “% Inhibition” value was -10% and the Z score was determined as 1.34.
For `CC(C)(C)[C@H](CC1CCCCC1)NC(=O)CCN`, in that order: -29% and 3.41.
For `CNc1cc([C@H]2C[C@H](NC(=O)Cc3ccccc3F)C2)nc(COC)n1`, in that order: -5% and 0.88.
In the same order, the values of `C=C(CC(=O)Nc1ccc(F)cc1F)C(=O)Nc1ccc(F)cc1F` are 33% and -3.76.
Regarding `CN(CCn1cccn1)c1cc(N2CCCC2)ncn1`, the “% Inhibition” value is listed as -2% and the Z score turned out to be 0.41.
For `CCn1nc(C)c(C(=O)N2CCn3nc(CO)cc3C2)c1C`, in that order: 1% and -0.11.
`OCc1cc(C(F)(F)F)ccc1-c1cnc2c(c1)CC[C@@H]2O`: the “% Inhibition” value is recorded as 3% and the Z score is recorded as -0.41.
In the case of `O=C(N[C@H]1CCc2cc(F)c(F)c(F)c21)N1CCn2ncnc2C1`, the “% Inhibition” value is -5% and the Z score is reported as 1.12.
In the same order, the values of `O=C(NCc1ccccn1)c1csc(-c2ccco2)n1` are -7% and 1.1.
For `O=S(=O)(c1ccc2c(c1)CCC2)N1CC(n2cnnc2[C@@H]2CCCO2)C1`, in that order: -9% and 1.49.
In the same order, the values of `CC(=O)N[C@H](C(=O)N(CC1CCN(CCc2ccccc2C)CC1)C1CCCC1)C(C)C` are -13% and 1.63.
Regarding `CC1C(Cc2ccccc2)CCN1C(=O)NC1CCN(C)C1=O` (stereo not drawn), the “% Inhibition” value was 1% and the Z score is -0.15.
For `Cn1cccc1CNC(=O)CCc1nc2c([nH]1)c(=O)[nH]c(=O)n2C`, in that order: -11% and 1.18.
Turning to `O=C(CCc1c[nH]c2ccccc12)Nc1cnn2c1NCCC2`, the “% Inhibition” value is given as -1% and the Z score is 0.12.
As to `COc1cc(=O)n2c(c1C(=O)N(C)Cc1nonc1C)CCNCC2`, the “% Inhibition” value is listed as -9% and the Z score is on record as 1.26.
For `Cc1cc(O)ccc1C(=O)NC[C@H]1CCN(C2CCCC2)C1`, in that order: -10% and 1.67.
Turning to `CN1CCCC2(CCN(C(=O)C3CCc4ccccc43)C2)C1` (stereo not drawn), the “% Inhibition” value stood at 1% and the Z score is given as -0.1.
For `CCN1C[C@@H](NC(=O)Cc2c(C)n[nH]c2C)CC1=O`, in that order: -6% and 0.83.
As to `O=C(NC1CCCCC1)N1CC[C@H](c2nc(CCOCC3CC3)no2)C1`, the “% Inhibition” value is on record as -2% and the Z score was determined as 0.26.
In the same order, the values of `COc1ccccc1C(=O)N1CCN(c2cc(N3CCN(C)CC3)nc(C)n2)CC1` are -13% and 1.51.
Consider `O=C(Nc1nc2c(s1)CCCC2)c1ccc2c(c1)OCCO2`, for which the “% Inhibition” value was -6% and the Z score is given as 0.6.
For the molecule `CN1CCC(N2CCC[C@H](NC(=O)c3ccc(Cl)c(F)c3)C2)CC1`, the “% Inhibition” value turned out to be 6% and the Z score is reported as -0.74.
With `NC(=O)c1csc(CNC(=O)N2CCC[C@H]2C(F)F)n1`, the “% Inhibition” value was found to be 11% and the Z score is reported as -2.12.
For `O=C(N[C@H]1CC[C@H](CO)CC1)c1cc(F)cc(Br)c1`, in that order: 2% and -0.2.
On to `Cn1ncc(C2CCC2)c1C(=O)N1CCN(C2CC2)c2cc(Cl)ccc21`, for which the “% Inhibition” value is recorded as 2% and the Z score is -0.23.
Regarding `CCn1ncc(CN[C@@H](C)c2ccnc(OC)c2)n1`, the “% Inhibition” value was -3% and the Z score is given as 0.46.
For `COc1ccc(-n2c(C)nn(Cc3ccccc3)c2=O)cc1`, in that order: 38% and -4.9.
In the same order, the values of `COc1ccccc1C(C)NC(=O)C1CCc2[nH]ncc2C1` (stereo not drawn) are -13% and 1.3.
On to `Cc1c(C(=O)NCc2ccco2)cnn1-c1ncccc1-c1nc(C2CC2)no1`, for which the “% Inhibition” value was -9% and the Z score came to 1.39.
In the same order, the values of `C[C@@H](c1ccccc1)N(Cc1nnc2n1CCOCC2)S(C)(=O)=O` are 19% and -3.18.
For `NC(=O)c1cncc(N2CCC(Oc3ccccc3Cl)CC2)n1`, in that order: -14% and 1.79.
For `Cc1ccn2c3c(nc2c1)CNC(=O)C[C@@H]3c1ccc(F)c(C)c1`, in that order: 6% and -0.79.
On to `Cc1nn(CCO)c(C)c1CN1CCn2nc(C#N)cc2C1`, for which the “% Inhibition” value is listed as -15% and the Z score was found to be 1.36.
Regarding `N#Cc1ccccc1C(=O)N1CCC2(CCN(C3CCCC3)CC2)[C@@H](CO)C1`, the “% Inhibition” value is recorded as -4% and the Z score is on record as 0.71.
Regarding `CCNC(=O)N1CCN(c2ccc(-c3noc(C(F)(F)F)n3)cn2)CC1`, the “% Inhibition” value was 12% and the Z score is given as -1.6.
For `Cc1ccc2nc(C)c(C)c(C(=O)N3CC[C@H](Cc4cccc(CO)c4)C3)c2c1`, in that order: -4% and 0.82.
For `CC(C)c1ccc(N2CCN(C(=O)c3cccs3)[C@@H](C)C2=O)cc1`, in that order: -7% and 1.13.
For the molecule `COc1ccc2[nH]c(CN3CCN(Cc4ccsc4)[C@@H](CCO)C3)c(C)c2c1`, the “% Inhibition” value was -15% and the Z score worked out at 1.67.
With `Cc1ccc(C)c(OCCN(C)C(=O)CN2CCCC2=O)c1`, the “% Inhibition” value is reported as -6% and the Z score worked out at 0.8.
For `COc1ccc2c(c1Cl)[C@@H](NCC1(CO)CCOCC1)CCC2`, in that order: -7% and 1.1.
Consider `COCC1(C(=O)NC2(c3cc(F)ccc3F)CC2)CCC1`, for which the “% Inhibition” value is recorded as -17% and the Z score is given as 1.55.
For `CC(=O)Nc1ccc(NCc2scnc2C)c(Br)c1`, in that order: -16% and 1.4.
In the same order, the values of `Cc1cc(C)n(CC(=O)N2CCC3(CCC(=O)N(Cc4ccncc4)C3)CC2)n1` are 3% and -0.41.
On to `O=C(NCCCN1CCCC1)c1ccc2c(c1)NC(=O)[C@@H]1CCCCN21`, for which the “% Inhibition” value is -2% and the Z score is reported as 0.34.
Take `CCc1nnc(CNC(=O)c2cnc(-c3csc(C)n3)nc2O)s1`: the “% Inhibition” value was -9% and the Z score came out at 1.19.
In the case of `C=CCCCNc1ccc(C(N)=O)c(F)c1`, the “% Inhibition” value amounted to 38% and the Z score is -4.33.
As to `COc1ccc(C)cc1NC(=O)c1cnn2c(=O)cc(C)[nH]c12`, the “% Inhibition” value was -14% and the Z score is given as 1.75.
Turning to `Cc1ccc([C@@H](C)CCNc2cc(C(=O)N(C)C)cc(S(=O)(=O)NCCN3CCNC3=O)c2)o1`, the “% Inhibition” value is reported as -2% and the Z score amounted to 0.43.
For the molecule `CCC1=NC2(CCN(C(=O)[C@H](C)Oc3ccc4c(c3)OCO4)CC2)C(=O)N1`, the “% Inhibition” value is recorded as -6% and the Z score was determined as 0.81.
In the same order, the values of `COCc1nc(CN(Cc2ccco2)C(=O)NC(C)C)[nH]c(=O)c1Cc1cccc(C(F)(F)F)c1` are -3% and 0.38.
In the case of `COc1ccc(NC(=O)[C@H](C)N(C)Cc2cnccn2)cc1Cl`, the “% Inhibition” value is on record as -6% and the Z score was determined as 0.69.
For `C=CCN(CCO)S(=O)(=O)c1ccc(F)c(C)c1`, in that order: -5% and 0.53.
For the molecule `CN(C)C[C@@]12CN(Cc3ccccc3)C[C@@H]1CN(C(=O)c1ccco1)C2`, the “% Inhibition” value is -8% and the Z score stood at 1.12.
Turning to `COc1cc(CNCCc2ccccc2C)ccc1OC[C@@H](O)CN1CCOCC1`, the “% Inhibition” value amounted to 3% and the Z score is -0.56.
As to `CCC(CC)C(=O)N1CCC2(CCN(Cc3sccc3C)CC2)CC1`, the “% Inhibition” value is listed as -9% and the Z score is listed as 1.81.
For `COc1ccc(C2=NOC(CNC3CC(C)OC3C)C2)cc1F` (stereo not drawn), in that order: -13% and 1.61.
For `CN(C)c1cccc(C(=O)N(C)[C@H]2COC[C@@H]2O)c1`, the “% Inhibition” value is recorded as 0% and the Z score is reported as -0.06.
For `CN(CCc1ccccn1)c1nc(-c2ccccc2)nc2c1CCNC2`, the “% Inhibition” value is reported as -3% and the Z score is reported as 0.49.
`CC1(C2CCN(c3cc(C(F)(F)F)nc(-c4cccnc4)n3)CC2)OCCO1`: the “% Inhibition” value is given as 5% and the Z score is listed as -0.87.
Take `COc1ccc(OCC(=O)Nc2[nH]nc(C)c2-c2cccc(Cl)c2)cc1`: the “% Inhibition” value was 0% and the Z score was -0.05.
